In PubChem BioAssay (NCI):
More than one record can exist for a structure, and the calls need not agree.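 How to read the values: 0–100, growth inhibition (40 = 60% inhibited); 0, no net growth; -100 to 0, cell death (-40 = 40% of starting cells died; -100 = all dead).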 The source holds more than one record for some entries. Only these are listed. There may be further records. For part of these data: These are repeated runs of one drug, at its own concentration, as given; one value stands for one run. Counts like (3×) say how often a value occurs here. Some values that stand alone complete this part of the results. Active and inactive are the calls of the source. Rule for the calls: active = growth percent below 10; inactive = the rest.

System: ACHN renal
Test: NCI-60 one-dose screen, 48 h (100 = growth as untreated, 0 = no growth, -100 = all killed)
Conditions: 0.25 µM

COc1cccc2c1C(=O)c1c(O)c3c(c(O)c1C2=O)C[C@@](O)(C(=O)CO)C[C@@H]3OC1CC(N)C(O)C(C)O1 (stereo not given in full)
growth (runs of 2006): inactive: 36.7% | growth (runs of 2007): inactive: 47.9, 59, 52.9, 46.8, 45.5 (2×), 29.1, 35.5, 32.4, 39.9, 41.5, 44.4, 49.3, 48.6, 62.5, 26.9, 29.6 (2×), 38, 23.7, 28.3, 30.4, 43.8, 43, 41.8, 33.8, 51.4, 55.2, 56.1, 51.1, 46.7, 24.4, 51, 28.8, 29.5, 41.4, 30.2, 46.1, 34.5, 31.9, 43.4, 48% | growth (runs of 2008): inactive: 37.8, 42.7, 47.9 (2×), 25.1, 33.6 (3×), 30.4, 32.4, 41, 39.9, 41.4 (2×), 47.8, 30.3, 39.7, 38.9, 34.5 (2×), 42.8, 35.7 (2×), 29.8, 32.1, 32.6, 21.8, 22.7, 33.9, 96.3, 31.2, 35, 30.7, 26.9, 51.4, 34.7, 41.7, 40.7, 30.1, 36.9, 35.5, 52.7, 49.7, 63.6, 60.9, 28.8, 33.5, 40.2, 25.5, 26.6, 33.4, 27.2, 44.3, 40.5, 47.7% | growth (runs of 2009): inactive: 33.5, 46.9, 43.1 (2×), 23.3, 31.8, 34.9, 31.6 (2×), 34.2, 33.6, 37.3 (2×), 29.8, 31.1, 44.4, 28.9, 26.7 (2×), 36.8, 39.2, 38.1 (2×), 35.2, 22.4, 24.9, 32.7, 30.2, 29.5 (2×), 26.1, 30.5, 23.7, 30.4, 33.9, 41.8, 36.3, 32.9, 39.5, 34.5, 29.7, 28.6, 32.8, 28.3, 41.2, 32.6, 33.4, 45.7, 47, 21.6, 13.5, 11.6, 19.2, 27.1, 30.7, 25.9, 40.5, 23.9, 21.4, 24.2, 39, 40.6, 28, 24.4, 33.1% | growth (runs of 2010): inactive: 37.3 (2×), 30.4, 29.5, 20.3, 25.6, 31.6, 28.4 (2×), 21.1, 30.9, 29.8 (2×), 27.1, 30.3, 21.2, 23.8, 20.8 (2×), 24.7, 28.8 (2×), 37, 36.3, 41.9, 19.2, 25.5 (2×), 12.6, 16.5, 22.4, 25.1, 25.9, 16.2, 23.3, 30.2, 32.6, 32.7, 40, 23.1, 30.1, 24.3, 27.5, 27.2, 26.7, 39.3, 48.6, 38.8, 42.4% and active: 9.71%, 1.21% | growth (runs of 2011): inactive: 37.7, 37, 30.9 (2×), 29.4 (2×), 31.9, 24.9, 32.8, 29.9 (2×), 36.4, 33.1, 37.6, 35.2, 38.8, 36.3, 41.2, 43.6, 38 (2×), 44.2, 28.2, 30.2, 31.2 (2×), 26.7, 43.4, 39.9, 28, 34 (2×), 33.3, 31.7 (2×), 32.6 (2×), 33, 41.1, 32.5, 22.1, 23.1, 21.7, 19.5, 22.4, 29.2, 32.2, 26.2, 24.3, 33.5, 29.6 (2×), 31, 32.9, 27.7, 30.1% | growth (runs of 2012): inactive: 28.6, 23.4, 25.7, 26.5, 32.6, 31.5 (2×), 35.1, 31.6, 24.2, 22.6 (2×), 22.7, 18.5 (2×), 27.1 (2×), 27.2 (2×), 28.5, 18.2, 21.6, 27.7, 26.7, 26.9 (2×), 26, 28.1, 15.5, 28.8, 17.3, 25.1, 35.6, 30.3, 43.3, 36.3, 39.7, 42.1, 50.6, 51.8, 49.7 (2×), 49.6, 48.1, 43.1, 52.4, 46.1, 42.5, 36.9, 31.9 (2×), 25.3, 29.2, 29.5, 27.5, 28.3, 37.9, 44.4, 38, 48, 39% | growth (runs of 2013): inactive: 26.7, 31.9 (2×), 48.3, 44.4, 32.6 (3×), 35, 29.8, 29.3, 36.7, 42.6, 30.5, 34.9 (2×), 37.8, 34.4, 37.4, 43.3 (2×), 38.8, 37, 39.4, 40.7, 44.2, 40.3, 38.1 (2×), 41.7, 45.4, 38, 36.8 (2×), 40.4, 39, 41.4, 30.4, 28.9, 32.1, 36.4, 45.1, 40.9, 40.5, 37.6, 36.2, 38.6, 44.7, 45.5, 40.6, 49.8, 33.6, 30.7 (2×), 40, 32.4, 33.5, 11.8, 18.9, 11.4, 13.8, 25.1, 34.7, 32.2, 23.4, 24.7% and active: 7.38% | growth (runs of 2014): inactive: 30.3, 36.8 (2×), 21.7, 27.4, 23.7 (3×), 27.5, 24 (3×), 24.7 (2×), 25.9, 33, 33.8, 37.7, 42.8 (2×), 38.6 (2×), 50.9, 44.6, 41.9, 45.6, 46.4, 34, 38 (2×), 24.2, 24.6, 19.5, 17.1, 20.6, 22.6, 20.5, 21, 22.2, 25.2 (2×), 20.4, 13.9, 17.4 (2×), 21.1, 25.1, 17.2, 23.8, 29.7, 32.8, 14.3, 12.9, 17.8, 20.1, 16.8, 18.4, 42.1, 33.4, 28.8, 28.6 (2×), 43.4, 34.9 (2×), 41.7, 30.2 (2×), 41.1, 31, 39.8, 32.4, 21.8, 23.2, 32, 35.1, 26, 23.9% | growth (runs of 2015): inactive: 31.7, 38.3, 38.7 (2×), 37.8, 29.5, 36.2, 33, 30.6, 41.1, 35.1, 48, 47, 34.7 (4×), 51.2, 33.6 (2×), 29.4, 18.7, 22.6, 22.7, 28.5 (2×), 25.5, 35.5, 32.2, 30.1, 30.3, 27.9, 27.5 (2×), 30.2, 34.4 (2×), 34, 31.2, 33.1, 35.6, 29.1 (3×), 19.8, 26.7, 23.6, 22.3, 25.7, 25.9, 30.5, 24.5, 26.2, 27, 29.8, 40.3, 52.9, 21.4, 38.5, 33.3, 31.5, 44.2, 38, 45.3, 47.7, 32.6, 32.7 (2×), 33.8, 25.3, 25.6, 27.4, 35.7, 32.8, 31.8, 21.8, 30.7% | growth (runs of 2016): inactive: 35.5, 35.7, 40.4, 38.6, 30, 37, 18.4, 23.7, 25.9 (2×), 33.1, 23.4, 30.4, 22.7, 28.6 (2×), 19.9, 26.1, 17.7, 24.5 (2×), 32.1 (3×), 26.7, 31.7, 25.7, 31.3, 32.4, 26.6, 25.8, 34.7, 28.9, 32.8, 27.7, 37.7, 49.6, 41.1, 36.4, 41.2, 48.4, 54.5, 42.2, 52, 49, 41, 33.5, 30.1, 35.1, 30.5, 24.2, 29.9, 25.5, 32.2, 33, 33.2, 36.2, 33.8, 37.5, 54.4, 47.9, 37.8, 41.4, 44.4, 47.8, 29.1, 32.7, 26.5, 42.7, 45.4% | growth (runs of 2017): inactive: 42, 44.2, 36.5, 39.4, 40.1, 44.9, 39 (2×), 30.6, 36.9, 42.7, 48.8, 49.2, 40.4, 44.1, 52, 51.7, 24.7 (3×), 24.1, 22.6, 24.4 (2×), 22.8, 21.3, 28.4, 25.5, 30.9 (2×), 29.5, 33.6, 33.3, 35.5, 35.1, 40.7, 41 (2×), 30.2, 39.2, 36.2, 43.6, 36.4, 39.8, 51.2, 55.1, 29.1 (3×), 25.8, 26.1, 23.4, 24.9, 30.5, 29.7, 25.1, 26.6, 27.9, 34.7, 33, 35, 31.3, 33.4, 40, 38.6, 40.5, 47.2, 32.3, 42.4, 44.8, 23.7, 25.4 (2×), 52.6, 56.5, 45.1, 28.6, 29.2, 25.2% | growth (runs of 2018): inactive: 33.5, 35.9, 29.3, 31.3, 41, 38.6 (3×), 35.1, 38.9, 38, 39.7, 40.4, 45.5, 52, 51.1, 54, 57.1, 56.6, 51.3, 51.5, 27.7 (2×), 30.5, 25.7 (3×), 37.7, 38.5, 44.2, 42.4, 48.3, 47.4, 24.5, 25.3, 26.5, 27.1, 25.6, 28.1, 24.4, 27.5, 27, 29.5, 32.1, 29.2, 36.2, 38.8, 40.3, 43.3, 46.2, 38.4, 37.4, 28.4, 27.4, 15.4, 20.1% | growth (runs of 2019): inactive: 29.5 (2×), 20.3, 31.6, 32.9, 44.8, 37.5, 29.2, 33.6, 37.8, 36.7, 43.1, 35.2, 25.2, 27.6, 19.8, 18.9, 21.3, 23.2, 26.7, 25.8, 26.6, 27.4, 32.1, 42, 32.6, 36, 40, 18.6, 25.3, 17.9, 21.4, 19.1, 19.9, 24.5, 25.1, 27.1, 35.1, 32.5, 41, 26.9, 16.8, 21, 20.5% | growth (runs of 2020): inactive: 18.2, 17.8, 26.5, 31 (2×), 29.2, 28.4, 31.9, 32.2, 21, 18.6, 27.5, 23.4, 32.1, 30.3, 44.4, 40.9, 41.2, 34.2, 38.7, 42.6%
